From PMC9911399, “Two distinct binding modes provide the RNA-binding protein RbFox with extraordinary sequence specificity”
Positions count from the first letter of the chain named. Some of the results follow.

T1: RBFOX1 RRM RbFoxmut (Fox-RRM*) (Homo sapiens, UniProt Q9NWB1 109-208, R118D;E147R;N151S;E152T)
T1 sequence: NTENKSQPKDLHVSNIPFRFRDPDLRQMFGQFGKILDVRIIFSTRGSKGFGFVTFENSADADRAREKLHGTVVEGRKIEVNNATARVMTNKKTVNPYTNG

B1: UUAUUUU (DNA:RNA)
RNA: GGGAGACCGGAAUUCAGAUUGUCCUUAUUUUUUAAAUCCCGUCGUAGCCACCA
DNA 1: CAATCTGAATTCCGGTCTCCC
DNA 2: TGGTGGCTACGACGGGATT
B2: UGCGAUG (DNA:RNA)
RNA: B1 RNA with U26G, A27C, U28G, U29A, U31G
DNA 1: CAATCTGAATTCCGGTCTCCC
DNA 2: TGGTGGCTACGACGGGATT
B3: UUACUCU (DNA:RNA)
RNA: B1 RNA with U28C, U30C
DNA 1: CAATCTGAATTCCGGTCTCCC
DNA 2: TGGTGGCTACGACGGGATT
B4: UGAAGUG (DNA:RNA)
RNA: B1 RNA with U26G, U28A, U29G, U31G
DNA 1: CAATCTGAATTCCGGTCTCCC
DNA 2: TGGTGGCTACGACGGGATT
B5: AACCUCA (DNA:RNA)
RNA: B1 RNA with U25A, U26A, A27C, U28C, U30C, U31A
DNA 1: CAATCTGAATTCCGGTCTCCC
DNA 2: TGGTGGCTACGACGGGATT
B6: GGACGAC (DNA:RNA)
RNA: B1 RNA with U25G, U26G, U28C, U29G, U30A, U31C
DNA 1: CAATCTGAATTCCGGTCTCCC
DNA 2: TGGTGGCTACGACGGGATT
B7: AACGGUG (DNA:RNA)
RNA: B1 RNA with U25A, U26A, A27C, U28G, U29G, U31G
DNA 1: CAATCTGAATTCCGGTCTCCC
DNA 2: TGGTGGCTACGACGGGATT
B8: UGAAUCU (DNA:RNA)
RNA: B1 RNA with U26G, U28A, U30C
DNA 1: CAATCTGAATTCCGGTCTCCC
DNA 2: TGGTGGCTACGACGGGATT
B9: UUCGUAG (DNA:RNA)
RNA: B1 RNA with A27C, U28G, U30A, U31G
DNA 1: CAATCTGAATTCCGGTCTCCC
DNA 2: TGGTGGCTACGACGGGATT
B10: GGAGCCG (DNA:RNA)
RNA: B1 RNA with U25G, U26G, U28G, U29C, U30C, U31G
DNA 1: CAATCTGAATTCCGGTCTCCC
DNA 2: TGGTGGCTACGACGGGATT
B11: CAAGAGA (DNA:RNA)
RNA: B1 RNA with U25C, U26A, U28G, U29A, U30G, U31A
DNA 1: CAATCTGAATTCCGGTCTCCC
DNA 2: TGGTGGCTACGACGGGATT
B12: GCUACGU (DNA:RNA)
RNA: B1 RNA with U25G, U26C, A27U, U28A, U29C, U30G
DNA 1: CAATCTGAATTCCGGTCTCCC
DNA 2: TGGTGGCTACGACGGGATT
B13: AUUCACU (DNA:RNA)
RNA: B1 RNA with U25A, A27U, U28C, U29A, U30C
DNA 1: CAATCTGAATTCCGGTCTCCC
DNA 2: TGGTGGCTACGACGGGATT
B14: CAGUAUA (DNA:RNA)
RNA: B1 RNA with U25C, U26A, A27G, U29A, U31A
DNA 1: CAATCTGAATTCCGGTCTCCC
DNA 2: TGGTGGCTACGACGGGATT
B15: CAUCGAC (DNA:RNA)
RNA: GGGAGACCGGAAUUCAGAUUGUCCCAUCGACUUAAAUCCCGUCGUAGCCACCA
DNA 1: CAATCTGAATTCCGGTCTCCC
DNA 2: TGGTGGCTACGACGGGATT
B16: UCAUUUU (DNA:RNA)
RNA: B1 RNA with U26C
DNA 1: CAATCTGAATTCCGGTCTCCC
DNA 2: TGGTGGCTACGACGGGATT
B17: GUGCGGC (DNA:RNA)
RNA: B15 RNA with C25G, A26U, U27G, A30G
DNA 1: CAATCTGAATTCCGGTCTCCC
DNA 2: TGGTGGCTACGACGGGATT
B18: CCUCCGU (DNA:RNA)
RNA: B15 RNA with A26C, G29C, A30G, C31U
DNA 1: CAATCTGAATTCCGGTCTCCC
DNA 2: TGGTGGCTACGACGGGATT
B19: ACCAAAU (DNA:RNA)
RNA: B15 RNA with C25A, A26C, U27C, C28A, G29A, C31U
DNA 1: CAATCTGAATTCCGGTCTCCC
DNA 2: TGGTGGCTACGACGGGATT
B20: CCACUCC (DNA:RNA)
RNA: B15 RNA with A26C, U27A, G29U, A30C
DNA 1: CAATCTGAATTCCGGTCTCCC
DNA 2: TGGTGGCTACGACGGGATT
B21: AGCAAGA (DNA:RNA)
RNA: GGGAGACCGGAAUUCAGAUUGUCCAGCAAGAUUAAAUCCCGUCGUAGCCACCA
DNA 1: CAATCTGAATTCCGGTCTCCC
DNA 2: TGGTGGCTACGACGGGATT
B22: UCGAAGC (DNA:RNA)
RNA: B21 RNA with A25U, G26C, C27G, A31C
DNA 1: CAATCTGAATTCCGGTCTCCC
DNA 2: TGGTGGCTACGACGGGATT
B23: GGAUCGA (DNA:RNA)
RNA: B21 RNA with A25G, C27A, A28U, A29C
DNA 1: CAATCTGAATTCCGGTCTCCC
DNA 2: TGGTGGCTACGACGGGATT
B24: AGUCGAG (DNA:RNA)
RNA: B15 RNA with C25A, A26G, C31G
DNA 1: CAATCTGAATTCCGGTCTCCC
DNA 2: TGGTGGCTACGACGGGATT
B25: GGUGAUC (DNA:RNA)
RNA: B21 RNA with A25G, C27U, A28G, G30U, A31C
DNA 1: CAATCTGAATTCCGGTCTCCC
DNA 2: TGGTGGCTACGACGGGATT
B26: UUUCUGG (DNA:RNA)
RNA: B1 RNA with A27U, U28C, U30G, U31G
DNA 1: CAATCTGAATTCCGGTCTCCC
DNA 2: TGGTGGCTACGACGGGATT
B27: GAAGGCA (DNA:RNA)
RNA: B15 RNA with C25G, U27A, C28G, A30C, C31A
DNA 1: CAATCTGAATTCCGGTCTCCC
DNA 2: TGGTGGCTACGACGGGATT
B28: UGCGUCA (DNA:RNA)
RNA: B21 RNA with A25U, A28G, A29U, G30C
DNA 1: CAATCTGAATTCCGGTCTCCC
DNA 2: TGGTGGCTACGACGGGATT
B29: UGUCGCC (DNA:RNA)
RNA: B15 RNA with C25U, A26G, A30C
DNA 1: CAATCTGAATTCCGGTCTCCC
DNA 2: TGGTGGCTACGACGGGATT
B30: AAUGGGA (DNA:RNA)
RNA: B21 RNA with G26A, C27U, A28G, A29G
DNA 1: CAATCTGAATTCCGGTCTCCC
DNA 2: TGGTGGCTACGACGGGATT
B31: UCACCGA (DNA:RNA)
RNA: B21 RNA with A25U, G26C, C27A, A28C, A29C
DNA 1: CAATCTGAATTCCGGTCTCCC
DNA 2: TGGTGGCTACGACGGGATT

molecular target: T1, RBFOX1 RRM RbFoxmut (Fox-RRM*); assay: EMSA; HiTS-Eq, 1 nM pool, 10 min; buffer printed only for the single-RNA assays: 10 mM Tris pH 7.5, 150 mM NaCl, 3.4 mM EDTA, 0.001% NP-40, 30 C; details: tags: His6 N-terminal (pET28a); label: 5' 32P
Method in brief: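 Purified RbFox RRM, wild type or mutant, was incubated for 10 min in 50 µL with 1 nM of a 5′-radiolabelled RNA pool carrying 7 randomized nucleotides, whose flanks were annealed to DNA oligonucleotides, over a series of increasing protein concentrations. Unbound RNA was resolved on 8% native PAGE, cut out, reverse-transcribed, barcoded by PCR and sequenced on an Illumina HiSeq 2500. Relative association constants were derived from changes in read counts for each RNA species versus the control reaction and normalised to the cognate motif.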

Row | Binder | binding signal
1 | B1 | 0.088 KA relative to UGCAUGU
2 | B2 | 0.493 KA relative to UGCAUGU
3 | B3 | 0.0472 KA relative to UGCAUGU
4 | B4 | 0.152 KA relative to UGCAUGU
5 | B5 | 0.104 KA relative to UGCAUGU
6 | B6 | 0.0798 KA relative to UGCAUGU
7 | B7 | 0.0984 KA relative to UGCAUGU
8 | B8 | 0.244 KA relative to UGCAUGU
9 | B9 | 0.15 KA relative to UGCAUGU
10 | B10 | 0.0931 KA relative to UGCAUGU
11 | B11 | 0.0927 KA relative to UGCAUGU
12 | B12 | 0.123 KA relative to UGCAUGU
13 | B13 | 0.0909 KA relative to UGCAUGU
14 | B14 | 0.154 KA relative to UGCAUGU
15 | B15 | 0.0973 KA relative to UGCAUGU
16 | B16 | 0.109 KA relative to UGCAUGU

Row | Binder | binding signal
17 | B17 | 0.113 KA relative to UGCAUGU
18 | B18 | 0.0837 KA relative to UGCAUGU
19 | B19 | 0.074 KA relative to UGCAUGU
20 | B20 | 0.105 KA relative to UGCAUGU
21 | B21 | 0.0939 KA relative to UGCAUGU
22 | B22 | 0.0896 KA relative to UGCAUGU
23 | B23 | 0.293 KA relative to UGCAUGU
24 | B24 | 0.093 KA relative to UGCAUGU
25 | B25 | 0.284 KA relative to UGCAUGU
26 | B26 | 0.0692 KA relative to UGCAUGU
27 | B27 | 0.104 KA relative to UGCAUGU
28 | B28 | 0.155 KA relative to UGCAUGU
29 | B29 | 0.138 KA relative to UGCAUGU
30 | B30 | 0.0854 KA relative to UGCAUGU
31 | B31 | 0.077 KA relative to UGCAUGU
